The text below walks through data of PubChem BioAssay AID463173 (ICCB-Longwood Screening Facility, Harvard Medical School, 2010).

In all, about 52,000 compounds went through this assay and about 4,300 (8.3%) were called active. No stated cut-off is given here; in the data, active means survival mostly below about 52% (no sharp cut-off); inactive means mostly above about 56%. Some of the results follow.

This assay has as its system DeltatarO mutant. Nature of the assay: growth inhibition of S. aureus wild type versus tarO mutant, primary screen, teichoic acid synthesis inhibitors, RN4220, OD600 (AID 463173). The settings on record: OD600, 18 h, stronger effect = lower value, screened at 18.75 µg/mL (by protocol).
For `COc1ccc(NC(=O)c2cc(S(=O)(=O)N3CCOCC3)cn2C)cc1Cl`, the survival was inactive: 108%. The same measure for `COCCCNC(=O)c1ccc(Cn2c(=O)c3ccccc3n(CC(N)=O)c2=O)cc1`: inactive: 81%; for `CCN(C(=O)c1ccc2c(c1)N(Cc1cccc(Cl)c1)C(=O)c1ccccc1S2=O)c1ccccc1` (centres undefined): active: 32%. In the case of `COc1ccc(-c2cc3nc(N)cc(=O)n3[nH]2)cc1`, the survival was inactive: 148%.

In the case of `CCC(=O)N1c2ccccc2CC1C(=O)NCCCN1CCN(c2cc(C)ccc2C)CC1` (centres undefined), the survival was inactive: 116%. Regarding `N#CCCn1nc(-c2ccccc2)cc1-c1ccccc1`, the survival was inactive: 73%. The same measure for `COc1ccc2oc(=O)c(-c3nnc(-c4ccccc4)o3)cc2c1`: inactive: 69%; for `COc1cccc2c1cc1c(=O)n(CC(=O)N3CCN(c4ccccc4F)CC3)nc(C)n12`: inactive: 95%. On to `O=C1CS(=O)(=O)C2(C(=O)Nc3ccccc32)N1c1cccc(Cl)c1` (centres undefined), for which the survival was inactive: 88%. As for `CCOc1ccc(NC(=O)CCCc2nc(-c3cccc(OC)c3)no2)cc1`, the survival is inactive: 53%.

Take `CCN(CC)CCNC(=O)c1cc(-c2ccc(Br)s2)nc2ccccc12`: the survival is active: 28%. The same measure for `Cc1nc(-n2nc(C)c(Cc3ccc4c(c3)OCO4)c2C)sc1C(=O)Nc1cccc(Cl)c1`: inactive: 78%.

On to `CCc1nn(CC(=O)Nc2cc(C)cc(C)c2)c(=O)c2cc3sccc3n12`, for which the survival was inactive: 53%.

As to `Cc1ccc(CN2CCCn3nc(C(=O)NCc4ccc(OC(C)C)cc4)cc3C2=O)cc1`, the survival was inactive: 83%. With `Nc1nsnc1C(=O)NCCO`, the survival was inactive: 83%.

For `Cc1ccc(NS(=O)(=O)c2cnc(N)nc2)c(C)c1`, the survival is inactive: 81%. For `CCN(CC)CCNC(=O)C1CCN(c2cc(C)nc3c(-c4ccc(Cl)cc4)c(C)nn23)CC1`, the survival was inactive: 139%.

In the case of `CCC(C(=O)Nc1nnc2n1CCS2)c1ccccc1` (centres undefined), the survival is inactive: 55%. For the molecule `Cc1cc2nc(-c3ccc(SCC#N)nc3)[nH]c2cc1C`, the survival is inactive: 74%. In the case of `Cc1ccc(CN2C(=O)CN(C3CCC(C)CC3)C(=O)C2c2ccc(F)cc2)cc1` (centres undefined), the survival is inactive: 91%. `COc1ccc(Cn2c(=O)n(-c3ccccc3C)c(=O)c3c4c(sc32)CN(C(C)=O)CC4)cc1`: the survival was inactive: 63%. Consider `NS(=O)(=O)c1ccc(NC(=O)/C=C/C(=O)O)cc1`, for which the survival is inactive: 107%. With `CCCN(CCC)CCNC(=O)c1cc2c(-c3ccc(Cl)cc3)nn(C)c2s1`, the survival is inactive: 124%. `CCOc1ccccc1NC(=O)N1CCN(C)c2ncccc21`: the survival was inactive: 86%. Consider `CSc1cccc(NC(=O)CC(c2cccs2)N2Cc3ccccc3C2=O)c1` (centres undefined), for which the survival was inactive: 112%. Regarding `COc1ccc2nc(NC(=O)c3nc(S(=O)(=O)Cc4ccccc4)ncc3Cl)sc2c1`, the survival is inactive: 77%. The same measure for `CSc1ccc(CCNC(=O)CCc2c(C)nc3c(c(C)nn3-c3ccc(C)c(C)c3)c2C)cc1`: inactive: 91%; for `CCc1ccc2c(c1)c1nnc(SCC(=O)NC3CCCCC3C)nc1n2C` (centres undefined): inactive: 85%. In the case of `CCOC(=O)c1cccc(NC(=O)c2ccc3nc(C(C)C)oc3c2)c1`, the survival was inactive: 67%. In the case of `CC1(C)C(=O)NCCN1C(=O)CCC(=O)O`, the survival is inactive: 98%. As to `CCCNC(=O)CSc1nc2ccccc2nc1Cc1ccc(Cl)cc1`, the survival was inactive: 74%. The same measure for `Cc1ccc(C)c(CN2C(=O)c3ccccc3S(=O)(=O)c3ccc(C(=O)N4CCc5ccccc54)cc32)c1`: inactive: 71%. `Cc1ccc(OCC(=O)NCC(c2ccc(Cl)cc2)N2CCCCC2)cc1` (centres undefined): the survival is inactive: 60%.

In the case of `Cc1ccc2c(c1)N(CC(=O)NC(C)(C)C)C(=O)C(C)O2` (centres undefined), the survival is inactive: 91%.

For `COc1ccc2[nH]c(=O)c(CN(C3CCCC3)S(=O)(=O)c3cccc4nsnc34)cc2c1`, the survival was inactive: 96%. In the case of `COc1ccc(NC(=O)N2CCc3c(sc4c3CCCC4)C2c2ccccc2OC)cc1` (centres undefined), the survival was active: 54%. On to `CC(C)CC(=O)Nc1ccc2nc(SCC(=O)N3CCCC3)sc2c1`, for which the survival was inactive: 88%.

`CCOC(=O)c1c(C)sc(-c2c(-c3cc(C)ccc3C)[nH]c3c2c(=O)n(C)c(=O)n3C)c1O`: the survival was inactive: 105%. The same measure for `Cc1ccc(NC(=O)CCn2nc(C)c(S(=O)(=O)N3CCCCC3)c2C)cc1Cl`: inactive: 130%. For `CCOc1ccc(N(CC(=O)Nc2cc(C)ccc2C)S(=O)(=O)c2c(C)[nH]c(=O)[nH]c2=O)cc1`, the survival was inactive: 69%. With `O=C(NCc1ccc2c(c1)CCN2C(=O)c1ccccc1)Nc1cc(F)ccc1F`, the survival is inactive: 97%. The same measure for `CCOC(=O)Cc1ccc(NC(=O)Nc2ccccc2OCc2cc(=O)n3ccccc3n2)cc1`: inactive: 72%; for `COc1ccc(Cn2c(CNS(=O)(=O)c3ccc(C)c(C)c3)nc3cccnc32)cc1`: active: 17%; for `CCn1nnc2cc(C(=O)Nc3cccc(Cl)c3C)ccc21`: inactive: 60%. The same measure for `COc1ccc(-c2nc3scc(CCNS(=O)(=O)c4ccccc4F)n3n2)cc1`: inactive: 90%.

Consider `COc1ccc(C)cc1S(=O)(=O)NCC(c1cccs1)S(=O)(=O)c1ccc(C)cc1` (centres undefined), for which the survival was inactive: 69%. As to `CC(Oc1ccc(F)cc1)C(=O)Nc1nc(-c2ccc(F)cc2)ns1` (centres undefined), the survival is active: -2%.

With `CCN1CCN(c2ncnc3c2cnn3-c2ccc(C)c(Cl)c2)CC1`, the survival was inactive: 119%. The same measure for `COc1ccc(-n2c(C)c(C(C)=O)c3cc(OC(=O)c4ccc(C)cc4)ccc32)cc1`: inactive: 52%; for `CCOC(=O)c1ccc(OCC2c3cc(OC)c(OC)cc3CCN2C(=O)c2ccc(S(=O)(=O)N3CCCC3)cc2)cc1` (centres undefined): inactive: 89%. In the case of `CCn1c(CNC(=O)c2ccc(OC)cc2)nnc1SCC(=O)Nc1ccccc1`, the survival is inactive: 128%. Take `COC(=O)c1ccc(NC(=O)CCc2c(C)nc3c(-c4ccccc4)c(C)nn3c2C)cc1`: the survival was inactive: 74%. Take `C=CCn1c(O)c(CN2CCN(Cc3ccccc3)CC2)c(C)c(C#N)c1=O`: the survival is inactive: 88%. As for `CCC1=Nc2cc(C(=O)NCC(C)c3ccccc3)ccc2Sc2ccc(C)cc21` (centres undefined), the survival was inactive: 57%. In the case of `Cc1ccc(CCNC(=O)c2cn(C)c3ccc(S(=O)(=O)N(C)C4CCCCC4)cc3c2=O)cc1`, the survival was inactive: 87%. In the case of `CCOC(=O)Cn1c(=O)n(CC2CCCO2)c2nc(-c3ccccc3F)nc(C(N)=O)c21` (centres undefined), the survival is inactive: 90%. As to `Cc1cccc(NC(=O)c2cc(S(=O)(=O)NCc3ccc4c(c3)OCO4)ccc2F)c1C`, the survival is inactive: 95%.

With `Cc1ccc(Cn2cc(C(=O)c3ccc(F)cc3)c(=O)c3cc4c(cc32)OCO4)cc1`, the survival was inactive: 56%. For the molecule `COc1ccc(CNS(=O)(=O)c2cc3c(cc2C)N(C)CCO3)cc1`, the survival is inactive: 98%. As to `COc1cccc(CSc2nnc(-c3ccc(F)cc3)o2)c1`, the survival is inactive: 90%. Take `C=C(C)c1cccc(C(C)(C)NC(=O)NCc2cccnc2)c1`: the survival is inactive: 107%. `CCOC(=O)Cn1nc(-c2ccccc2)c2cnc3ccc(OCC)cc3c21`: the survival was inactive: 109%. Turning to `Cc1oc(-c2cccc(Cl)c2)nc1CN1CCC(C(=O)NCCCN2CCN(c3ccccc3F)CC2)CC1`, the survival is inactive: 69%.

With `O=C(CN(CCc1ccccc1)S(=O)(=O)c1ccc(Br)cc1)NCc1ccc(Cl)cc1`, the survival is inactive: 123%.

Regarding `CCC1CN(C(=O)C2CCN(S(=O)(=O)c3c(C)noc3/C=C/c3ccccc3F)CC2)c2cc(Cl)ccc2O1` (centres undefined), the survival was inactive: 94%. `COc1ccc(N(Cc2cccs2)C(=O)c2ccc(Br)o2)cc1`: the survival is inactive: 64%.

Turning to `Cc1ccc(-c2nc3ccccc3s2)cc1NC(=O)COc1ccccc1`, the survival is inactive: 54%. Take `CCOc1ccc(/C=C/c2nc(C#N)c(N3CCCCC3)o2)cc1`: the survival is inactive: 52%.

With `CCOC(=O)c1cccc(NC(=O)CCc2c(C)nn(-c3ccc(N4CCCC4)nn3)c2C)c1`, the survival was inactive: 93%. Regarding `Cc1ccc(OCC(=O)NCC2(N3CCOCC3)CCCCC2)cc1C`, the survival is inactive: 101%. With `CCCCN(CCCC)CCNC(=O)c1cn(CC)c2ccc(S(=O)(=O)N3CCc4ccccc4C3)cc2c1=O`, the survival is inactive: 74%. The same measure for `CCCN(CCC)CCNC(=O)CN1C(=O)COc2ccc(S(=O)(=O)N3CCC(C)CC3)cc21`: inactive: 99%; for `COC(=O)C1C(O)=C(C=Nc2ccccc2)C(=O)CC1(C)C` (centres undefined): inactive: 111%. On to `CCOc1cc(C2C(C(=O)Nc3ccc(OC)cc3)=C(C)Nc3nc(SC)nn32)ccc1O` (centres undefined), for which the survival is inactive: 160%.

`O=C(C1CCN(c2ncnc3c2nc2n3CCCCC2)CC1)N1CCN(c2ccc(F)cc2)CC1`: the survival was active: -1%. For `CC(=O)N1C(O)CCN1c1ccccc1` (centres undefined), the survival was inactive: 69%. With `COc1ccc(NC(=O)C2CCCN(S(=O)(=O)c3ccc4c(c3)CCCC(=O)N4)C2)cc1OC` (centres undefined), the survival was inactive: 88%.

In the case of `Cc1ccc2c(=O)cc(C(=O)Nc3ccc(S(=O)(=O)Nc4nc(C)cc(C)n4)cc3)oc2c1`, the survival is inactive: 78%.

With `CCc1cc2c(=O)n(-c3ccccc3)cnc2s1`, the survival was inactive: 73%. The same measure for `COCCNC(=O)CSc1cn(CC(=O)N2CCCCCC2)c2ccccc12`: inactive: 73%; for `CC1CC(CN)CC(CO)C1` (centres undefined): inactive: 84%. As to `Cc1nn(C)cc1C(C(=O)NC1CCCCC1)N(CCc1ccccc1)C(=O)c1cnccn1` (centres undefined), the survival was inactive: 97%. The same measure for `CCOc1ccc(OCC)c(NC(=O)C2CCN(S(=O)(=O)c3cn(C)cn3)CC2)c1`: inactive: 117%; for `CSc1ccc(CCNC(=O)Cn2ncc3c(=O)oc4ccccc4c32)cc1`: inactive: 73%.

As for `CCC(Sc1ncnc2sc3c(c12)CCCC3)C(=O)OC(C)C` (centres undefined), the survival is active: -7%. The same measure for `CCc1ccc(NC(=O)Cn2c(=O)n(Cc3nc(-c4ccccc4)no3)c(=O)c3cc4c(cc32)OCO4)cc1`: inactive: 97%; for `COc1ccc(S(=O)(=O)N2CCC(c3ccncc3)CC2)cc1OC`: inactive: 108%. In the case of `O=C(c1ccco1)n1nc(-c2ccc(Cl)cc2)nc1NCc1ccccc1`, the survival is inactive: 74%.

Turning to `Cc1ccc(N2C(=O)NC(NS(=O)(=O)c3ccc(Cl)cc3)(C(F)(F)F)C2=O)cc1C` (centres undefined), the survival was inactive: 76%.
